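Interpolation was linear, between the two tested concentrations surrounding the appropriate level; five concentrations were tested over 48 hours in 96-well plates. GI50: concentration for 50% inhibition of growth. TGI denotes the concentration required for complete inhibition of growth.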
What follows are compounds tested on NCI-H322M lung (assay: growth of human tumour cells (NCI), 48 h).

| Structure (SMILES) | GI50 | TGI |
| --- | --- | --- |
| COc1ccc(C(=O)COc2ccc(NC(=O)Nc3ccc(Cl)c(C(F)(F)F)c3)cc2)cc1 | 2.33 µM | > 100 µM |
| CC1(C)CC[C@]2(C(=O)Nc3ccccc3)CC[C@]3(C)C(=CC[C@@H]4[C@@]5(C)CC[C@H](N)C(C)(C)[C@@H]5CC[C@]43C)[C@H]2C1 | 15.2 µM | 28.5 µM |
| COc1ccc(CN2[C@@H](C(=O)NCc3ccc(C(=O)NO)cc3)Cc3c([nH]c4ccccc34)[C@@H]2C)cc1 | 2.59 µM | > 21 µM |
| CCCN(CCC)S(=O)(=O)c1ccc(C(=O)O)cc1.CCCN(CCC)S(=O)(=O)c1ccc(C(=O)O)cc1.[Cl][Pt+2][Cl].[NH2-].[NH2-] | 9.17 µM | > 100 µM |

Source: PubChem BioAssay (NCI)
